The values below come from paper PMC12713088.

Chains of the proteins cited; added tags and fusions are not shown.
UniProt Q8GUI6: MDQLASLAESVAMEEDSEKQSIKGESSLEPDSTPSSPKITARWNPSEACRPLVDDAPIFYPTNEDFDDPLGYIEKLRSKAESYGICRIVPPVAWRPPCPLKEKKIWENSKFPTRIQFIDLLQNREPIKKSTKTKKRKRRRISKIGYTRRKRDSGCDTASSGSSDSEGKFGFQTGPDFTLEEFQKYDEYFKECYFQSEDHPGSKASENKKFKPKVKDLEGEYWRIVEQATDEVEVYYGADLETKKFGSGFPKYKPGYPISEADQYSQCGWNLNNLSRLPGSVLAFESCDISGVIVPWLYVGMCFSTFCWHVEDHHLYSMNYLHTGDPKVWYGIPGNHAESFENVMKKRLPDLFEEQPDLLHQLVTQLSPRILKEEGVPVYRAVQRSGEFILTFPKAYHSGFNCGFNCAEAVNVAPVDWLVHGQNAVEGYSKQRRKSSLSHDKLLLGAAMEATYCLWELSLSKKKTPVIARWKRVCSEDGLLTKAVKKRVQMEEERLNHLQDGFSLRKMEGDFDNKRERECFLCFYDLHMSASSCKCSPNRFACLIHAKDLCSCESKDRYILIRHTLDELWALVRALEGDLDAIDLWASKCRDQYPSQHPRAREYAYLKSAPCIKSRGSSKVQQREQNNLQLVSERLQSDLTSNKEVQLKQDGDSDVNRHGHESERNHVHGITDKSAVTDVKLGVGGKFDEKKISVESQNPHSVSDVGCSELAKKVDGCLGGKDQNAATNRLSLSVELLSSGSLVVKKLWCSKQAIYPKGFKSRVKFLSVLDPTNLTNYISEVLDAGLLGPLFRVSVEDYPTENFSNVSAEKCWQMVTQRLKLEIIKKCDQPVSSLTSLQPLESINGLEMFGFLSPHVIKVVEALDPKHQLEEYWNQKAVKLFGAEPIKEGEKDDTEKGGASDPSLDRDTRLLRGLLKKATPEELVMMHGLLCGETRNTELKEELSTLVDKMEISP

Experiment [1] has as its target T1, NAC050-MBP, recombinant (Arabidopsis thaliana) (UniProt Q9SQX9).
T1 sequence: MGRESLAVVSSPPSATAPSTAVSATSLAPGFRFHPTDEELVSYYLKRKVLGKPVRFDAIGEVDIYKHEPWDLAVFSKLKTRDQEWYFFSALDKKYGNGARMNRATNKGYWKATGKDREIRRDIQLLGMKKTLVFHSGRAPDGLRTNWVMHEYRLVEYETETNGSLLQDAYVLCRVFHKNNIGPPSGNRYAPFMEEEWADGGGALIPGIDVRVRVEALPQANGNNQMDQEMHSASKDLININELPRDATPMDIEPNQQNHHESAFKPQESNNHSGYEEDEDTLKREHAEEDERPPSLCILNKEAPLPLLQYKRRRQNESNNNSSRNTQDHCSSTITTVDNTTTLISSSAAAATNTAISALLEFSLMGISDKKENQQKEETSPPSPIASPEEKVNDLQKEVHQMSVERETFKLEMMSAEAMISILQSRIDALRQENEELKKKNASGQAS
As to the kind of experiment: SEC; purified proteins mixed in equivalent molar amounts, 4 °C overnight, Superose 6 10/300GL; fractions detected by immunoblotting (GST, FLAG, MBP, HIS); both purified. On the technique in general: Size exclusion chromatography separates by hydrodynamic size, large species first.

Experiment [2] has as its target T2, NAC050, yeast two-hybrid fusion (Arabidopsis thaliana) (UniProt Q9SQX9).
T2 sequence: T1 sequence
As to the kind of experiment: two-hybrid; pGADT7 and pGBKT7 fusions, strains AH109 and Y187 mated; growth on SD-LWH with 0 or 3 mM 3-AT.

Experiment [3] concerns the target T3, NAC052, yeast two-hybrid fusion (Arabidopsis thaliana) (UniProt Q9SQY0).
T3 sequence: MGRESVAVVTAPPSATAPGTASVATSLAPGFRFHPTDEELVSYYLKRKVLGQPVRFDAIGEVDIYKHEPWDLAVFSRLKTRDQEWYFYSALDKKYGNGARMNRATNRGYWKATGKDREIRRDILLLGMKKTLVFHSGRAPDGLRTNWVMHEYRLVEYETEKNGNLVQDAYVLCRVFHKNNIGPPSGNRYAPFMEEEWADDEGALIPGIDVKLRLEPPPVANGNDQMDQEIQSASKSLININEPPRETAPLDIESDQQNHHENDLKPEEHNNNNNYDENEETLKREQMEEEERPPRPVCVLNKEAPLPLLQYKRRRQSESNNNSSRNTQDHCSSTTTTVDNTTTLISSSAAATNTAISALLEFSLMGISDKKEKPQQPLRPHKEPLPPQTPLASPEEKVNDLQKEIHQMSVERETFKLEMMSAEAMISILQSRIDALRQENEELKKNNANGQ
The experiment is described as above.

These are yes or no findings as the source states them, for the method shown. Some results given as binding are weak or reduced against the parent protein; the word gives no strength. Tags and fused reporters may be left off the sequences shown.

With “JMJ14-Flag, recombinant (from UniProt Q8GUI6 1-954) (enzyme)”, in experiment [1], the binding entry is “binds”. As for “JUMONJI14 (JMJ14), yeast two-hybrid fusion (from UniProt Q8GUI6 1-954) (enzyme)”, the binding entry in experiment [2] and in experiment [3] was “binds” in each case.
